Values joined by “and” are separate entries in the source; they are usually repeats but may differ in a detail not shown here. Equal values may be shown once. The whole screen tested about 420,000 compounds, of which about 64,000 (15%) were called active. Inconclusive results, whose numbers are uncertain, are shown with a selection of clear calls. The call rests on the fitted dose curve; in most records, active means well fitted inhibition curve with a large enough effect; inconclusive means small, poorly fitted or top-dose-only effect; inactive means flat fitted curve, though single readings scatter. Potencies beside an inconclusive call are fits to weak or partial responses and may not hold up.
assay: qHTS for Inhibitors of human tyrosyl-DNA phosphodiesterase 1 (TDP1): qHTS in cells in absence of CPT; settings: DT40 Tdp1-/- hTDP1 cells, no CPT, ATP luminescence, 48 h; activity change, negative = growth inhibition: at 46.2 µM (top of the series) unless noted; further: nearly all actives have a fitted effect of over 55% in size
Summary of the method: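 Readout: luminescence from CellTiter-Glo after 30 min in the dark at RT. Cells: DT40 Tdp1-/- with stable hTDP1, 400/well. Exposure: compounds alone, ≥48 hr, 37 °C.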
On the % scale 0 is the no-effect control and ±100 the full control effect; potency means the concentration at half of the fitted maximal effect; tags describe the fitted curve by direction and shape.

Row | SMILES | activity change, negative = growth inhibition | Potency
1 | CS(=O)(=O)c1ccc(Cl)c(NC(=O)CSC(=S)N2CCCC2)c1 | inactive: -16.7% | 
2 | CC(=O)Nc1ccc(Oc2cnc3ccccc3n2)cc1 |  | inconclusive: 16.4 µM [inhibitor, partial curve, poor fit]
3 | COc1ccc(OC)c(NC(=O)c2cc3c(n(-c4ccc(Cl)cc4)c2=O)CC(C)(C)CC3=O)c1 | inactive: -5.85% | 
4 | COc1ccc(C)cc1NS(=O)(=O)c1cc(C)ccc1C |  | inconclusive: 6.51 µM [inhibitor, partial curve, poor fit]
5 | Cc1cccc(NC(=O)C2C3CCC4C(CCC32)C4(Cl)Cl)c1 (configuration not stated) |  | inconclusive: 6.51 µM [inhibitor, partial curve]
6 | CC(C)(C)N=C1C([N+](=O)[O-])=CC=C2C1=NC1(CCCCC1)N2O |  | inconclusive: 23.1 µM [inhibitor, single point]
7 | O=C(Nc1ccc2nc[nH]c2c1)c1ccco1 | inactive: -15.7% | 
8 | COc1ccc(CC(NC(C)=O)C(=O)NC2CCN(C(=O)C3CCCCC3)CC2)cc1OC (configuration not stated) | inactive: -0.653% | 
9 | Cc1ccc(S(=O)(=O)N[C@@H](CC(C)C)C(=O)N2CCC(C(=O)N[C@@H](Cc3ccccc3)C(=O)O)CC2)cc1 |  | inconclusive: 3.66 µM [inhibitor, single point]
10 | CCCCOC(=O)c1ccccc1N1C(=O)C2C3CCC(C3)C2C1=O (configuration not stated) | inactive: -13.8% | 
11 | CCN(CC)CCSc1nnc2c3cc(F)ccc3n(Cc3ccccc3)c2n1 |  | inconclusive: 23.1 µM [inhibitor, single point]
12 | Cc1cccc(NC(=S)N(Cc2cccs2)Cc2cc3cc(C)cc(C)c3[nH]c2=O)c1 |  | active: 9.2 µM
13 | CCN(Cc1ccncc1)C(=O)c1cccc(S(=O)(=O)N2CCCCC2)c1 | inactive: -15% | 
14 | CCC(C)(C)n1nnnc1CN1CCN(c2ccc(OC)cc2)CC1 |  | inconclusive: 14.6 µM [inhibitor, partial curve, poor fit]
15 | O=S(=O)(c1ccc(S(=O)(=O)N2CCN3CCCC3C2)cc1)N1CCCC1 (configuration not stated) | inactive: 3.47% | 
16 | CCOc1ccccc1-n1nnnc1SC(C)C(=O)OC (configuration not stated) | inactive: -6.08% | 
17 | Cc1nc2sccn2c1CN1CCC2(CC1)CC2C(=O)Nc1ccc2c(c1)OCO2 (configuration not stated) |  | inconclusive: 16.4 µM [inhibitor, single point]
18 | CCN(CC)CCSC(=O)C(c1ccccc1)c1ccccc1 |  | inconclusive: 29.9 µM [inhibitor, single point] and inconclusive: 33.5 µM [inhibitor, single point]
19 | CCn1c(/C=C/c2ccc(F)cc2)nc2ccccc2c1=O |  | inconclusive: 20.6 µM [inhibitor, single point]
20 | O=C1c2ccncc2C(=O)N1C1CCCCC1 | inactive: 3.68% | 
21 | Cc1cccc2nnc(-c3ccccc3)n12 | inactive: 10.8% | 
22 | O=C(CN1CCN(Cc2ccc(F)cc2)C1=O)NCc1ccccc1Cl |  | inconclusive: 29.1 µM [inhibitor, single point]
23 | COc1ccc(-n2cc(CNCc3cnc4ccccn34)c(-c3cccc(F)c3)n2)cc1 |  | inconclusive: 18.4 µM [inhibitor, single point]
24 | O=C(NC12CC3CC(CC(C3)C1)C2)c1ccc(-c2ccc(Br)cc2)o1 |  | active: 16.4 µM

Row | SMILES | activity change, negative = growth inhibition | Potency
25 | COc1cccc(-c2nn(C)c3sc(C(=O)NCc4cc(OC)ccc4OC)cc23)c1 |  | inconclusive: 23.1 µM [inhibitor, single point]
26 | O=C(NC1CC1)c1cccc(Nc2ccc(-c3ccc4c(c3)OCCO4)nn2)c1 |  | active: 11.6 µM
27 | S=C(Nc1cccc2ccccc12)NC1CCCCC1 |  | active: 16.4 µM
28 | O=c1c(-c2ccco2)nc2ccccc2n1C(c1ccccc1)c1nc2ccccc2[nH]1 (configuration not stated) |  | active: 23.1 µM
29 | CCCOc1ccc(/C=c2\sc3ncnn3c2=O)cc1 |  | inconclusive: 29.1 µM [inhibitor, single point]
30 | Cc1ccc(OCCSc2nc(NC(C)C)nc(NC(C)C)n2)cc1 |  | inconclusive: 18.4 µM [inhibitor, single point]
31 | COc1ccc(Cl)cc1NC(=O)CC1CCCC1 | inactive: 0.261% | 
32 | CC1CC(C)(C)NC(=S)N1CCCC(=O)N1CCN(c2ccccc2F)CC1 (configuration not stated) |  | inconclusive: 18.4 µM [inhibitor, single point]
33 | COc1ccc(NC(=O)c2c(C)noc2C)cc1S(=O)(=O)N1CCCCC1 |  | inconclusive: 32.6 µM [inhibitor, single point]
34 | C=CCn1c(NC(=O)c2ccc(C)cc2)c(C#N)sc1=N |  | inconclusive: 29.1 µM [inhibitor, single point]
35 | NC(=O)C(c1ccc(Cl)cc1)c1ccc(Sc2ccccc2)nn1 (configuration not stated) |  | inconclusive: 14.6 µM [inhibitor, partial curve]
36 | CCN(CC)S(=O)(=O)c1ccc(N2CCN(c3ccccc3OC)CC2)c(N)c1 |  | active: 7.31 µM
37 | O=C(Cn1c2ccccc2c2nc3n(c(=O)c21)CCS3)Nc1ccccc1 |  | inconclusive: 29.1 µM [inhibitor, single point]
38 | COc1ccc(CNC(=O)c2ccc(N3CCCC3)c(NC(=O)NCc3ccc(C)cc3)c2)cc1 |  | inconclusive: 29.1 µM [inhibitor, single point]
39 | O=C(Nc1ccc(S(=O)(=O)N2CCc3ccccc32)cc1)c1ccc2c(c1)OCO2 |  | inconclusive: 29.1 µM [inhibitor, single point]
40 | COc1cccc(-c2c(C(=O)O)cc(O)c3ccc(OC)cc23)c1 | inactive: -9.98% | 
41 | COc1ccc(NC(=O)CSc2nc(NS(=O)(=O)c3ccc(C)cc3)cc(=O)[nH]2)cc1 | inactive: -23.2% | 
42 | O=S(=O)(c1ccc(Cl)cc1)N1CCC(c2nc3ccccc3[nH]2)CC1 |  | active: 11.6 µM
43 | COc1cccc(NS(=O)(=O)c2ccc(NC(C)=O)cc2)c1 |  | inconclusive: 13 µM [inhibitor, partial curve]
44 | CC1CCCCC1NC(=O)CSc1ncnc2sccc12 (configuration not stated) |  | inconclusive: 23.1 µM [inhibitor, single point]
45 | Cn1c(/N=C/c2ccccc2[N+](=O)[O-])nc2ccccc21 |  | inconclusive: 29.1 µM [inhibitor, single point]
46 | COC(=O)[C@@]12C[C@@H](CC(=O)NCCc3ccccc3OC)C(=O)N(Cc3ccccc3)C1=CCC(C)(C)C2 |  | inconclusive: 20.6 µM [inhibitor, single point]
47 | COc1ccc(CNC(=O)/C(C#N)=C/c2cccc(OC)c2OC)cc1 |  | inconclusive: 20.6 µM [inhibitor, single point]
48 | Cc1ccccc1N(CC(=O)N1CCCC1)S(=O)(=O)c1ccc(Cl)cc1 |  | inconclusive: 29.1 µM [inhibitor, single point]

Row | SMILES | activity change, negative = growth inhibition | Potency
49 | Cc1cc2c(c(SCC(=O)NCc3ccc(Cl)cc3)n1)C(=O)OC2 | inactive: 4.36% | 
50 | CC(=O)NCCNc1nc(-c2ccccc2CN(C)C)nc2ccccc12 | inactive: 3.65% | 
51 | CC1CCN(c2nc(-c3ccc(F)cc3)cc(C(F)(F)F)n2)CC1 | inactive: -28.1% | 
52 | CC1CCc2sc(C(=O)Nc3ccc(C(N)=O)cc3)cc2C1 (configuration not stated) | inactive: -5.19% | 
53 | CCN(CC)C(=O)c1ccc(-c2nnc(Nc3ccc(C(=O)NC)cc3)c3ccccc23)cc1 |  | inconclusive: 18.4 µM [inhibitor, single point]
54 | CC(=O)Nc1c(Cl)cc(Cl)c2c1Cc1cc(Cl)ccc1-2 |  | inconclusive: 16.4 µM [inhibitor, partial curve]
55 | CS(=O)(=O)N1CCc2cc(C(=O)Nc3ccc(Cl)cc3)ccc21 | inconclusive: -33.2% [inhibitor] | 
56 | Cc1cc(CN(C)C(=O)c2ccc3nc(Cc4ccccc4F)oc3c2)on1 |  | inconclusive: 18.4 µM [inhibitor, single point]
57 | CCOc1cc(NC(=O)C2CCCCC2)c(OCC)cc1NC(=O)c1ccccn1 |  | active: 1.64 µM
58 | COc1ccc(OC)c(S(=O)(=O)NC2CC(=O)N(c3ccc(C)c(C)c3)C2)c1 (configuration not stated) | inactive: -23.5% | 
59 | Cc1nc2ccccc2n1Cc1ccc(Br)cc1 |  | active: 6.51 µM
60 | CC(=O)C(=Cc1ccc(O)cc1)C(C)=O | inactive: -23.1% | 
61 | N#Cc1c(-c2ccccc2)c(-c2ccccc2)nn(CC(=O)NNC(=O)Nc2ccc(Cl)c(Cl)c2)c1=O |  | inconclusive: 18.4 µM [inhibitor, single point]
62 | COC(=O)c1ccc(NC(=O)C23CC4CC(C2)CC(n2cncn2)(C4)C3)cc1 | inactive: -28.5% | 
63 | CC(=O)N1CCN(C(=S)NC(=O)c2c(-c3ccccc3Cl)noc2C)CC1 | inactive: -16.6% | 
64 | O=C(Cc1ccccc1)N(Cc1cccnc1)c1nc2c(F)cc(F)cc2s1 |  | inconclusive: 23.1 µM [inhibitor, single point]
65 | Cc1cccc(N2CCN(C(=O)CCc3nnc4n(CC(C)C)c(=O)c5ccccc5n34)CC2)c1C |  | inconclusive: 3.66 µM [inhibitor, full curve, poor fit]
66 | COc1ccc(-c2cn3c(n2)sc2cc(C(=O)Nc4ccc(C)c(C)c4)ccc23)cc1 |  | inconclusive: 2.31 µM [inhibitor, full curve]
67 | Cc1cc(OC(C)C(=O)NCCc2c[nH]c3ccccc23)c2c(C)cc(=O)oc2c1 (configuration not stated) |  | inconclusive: 23.1 µM [inhibitor, single point]
68 | CCCn1c(NCc2cc(C)ccc2O)nc2ccccc21 |  | inconclusive: 20.6 µM [inhibitor, single point]
69 | N#Cc1c(N)n(CCNC(=O)c2ccccc2)c2nc3ccccc3nc12 | inactive: -8.32% | 
70 | CCCNC(=O)c1ccc(N2CCC3(CC2)CC(c2cccc(Br)c2)=NO3)c(NC(=O)c2ccc(Br)cc2)c1 | inactive: -15.9% | 
71 | CCc1ccccc1NC(=O)CN(Cc1ccccc1)S(=O)(=O)c1ccc(Br)cc1 |  | inconclusive: 29.1 µM [inhibitor, single point]
72 | COC(=O)c1sc(N)c(C(=O)OC)c1COC(=O)CNS(=O)(=O)c1cccc(C#N)c1 | inconclusive: -38% [inhibitor] | 
